# Source: PubChem BioAssay (NCI)
#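 Five concentrations, 48 hours, 96-well plates. The concentration for 50% growth inhibition is given as GI50.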 The source holds more than one record for some entries. Only these are listed. There may be further records. For some assays here: The tests behind the records often covered other concentration ranges, which the source does not state; a value can be the end of its range. For some assays here: The records of an entry are repeated measurements (runs, samples, wells, individuals or studies). Brackets tell where a record comes from. Letters hold for one entry only.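 TGI denotes the concentration required for complete inhibition of growth.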
# What was measured:
# Assay in all cases: DTP human tumour cell line panel, 48 h
# SF-295 CNS = tested on: SF-295 CNS
# HOP-92 NSCLC = tested on: HOP-92 NSCLC
# K-562 leukemia = tested on: K-562 leukemia
# RPMI-8226 leukemia = tested on: RPMI-8226 leukemia
# UACC-62 melanoma = tested on: UACC-62 melanoma
# 786-0 renal = tested on: 786-0 renal
# HOP-62 NSCLC = tested on: HOP-62 NSCLC
SMILES,GI50 (SF-295 CNS),GI50 (HOP-92 NSCLC),GI50 (K-562 leukemia),TGI (RPMI-8226 leukemia),GI50 (UACC-62 melanoma),GI50 (786-0 renal),GI50 (HOP-62 NSCLC)
Nc1nc(N)c2c(ccc3c2ccn3Cc2cccc([N+](=O)[O-])c2)n1,547 nM and 14.3 nM,1.27 µM and 28 nM,7.31 nM and 191 nM,2.81 µM and 75.9 nM,,,
N#Cc1ccc(-c2ccc(Cl)cc2)n(C2OC(CO)C(O)C(O)C2O)c1=S (stereo not drawn),"> 100 µM [sample A, 1 test] and 3.64 µM [sample B, 1 test]",,,,"> 100 µM [sample A, 1 test] and 5.53 µM [sample B, 1 test]","> 100 µM [sample A, 1 test] and 5.73 µM [sample B, 1 test]","> 100 µM [sample A, 1 test] and 5.53 µM [sample B, 1 test]"
